{"source": "the antibiotic and cytotoxicity screens of Wong et al. (2023)", "key": {"HSkMC": {"test_system": "HSkMC", "assay": "cytotoxicity call (relative viability < 0.9)", "details": "10 µM"}, "HepG2": {"test_system": "HepG2", "assay": "cytotoxicity call (relative viability < 0.9)", "details": "10 µM"}, "S. aureus RN4220": {"test_system": "S. aureus RN4220", "assay": "growth inhibition call (relative growth <= 0.2)", "details": "50 µM"}}, "note": "The other results are listed elsewhere or left out."}
{"smiles": "CC(O)(CN)C1CC1", "note": "(configuration not stated)", "values": [{"measurement": "cytotoxicity call", "setting": "HSkMC", "value": "inactive"}, {"measurement": "cytotoxicity call", "setting": "HepG2", "value": "inactive"}, {"measurement": "growth inhibition call", "setting": "S. aureus RN4220", "value": "inactive"}]}
{"smiles": "CC(C)c1c(C(=O)Nc2ccccc2)c(-c2ccccc2)c(-c2ccc(F)cc2)n1CC[C@@H](O)C[C@@H](O)CC(=O)O", "values": [{"measurement": "cytotoxicity call", "setting": "HSkMC", "value": "inactive"}, {"measurement": "cytotoxicity call", "setting": "HepG2", "value": "inactive"}, {"measurement": "growth inhibition call", "setting": "S. aureus RN4220", "value": "inactive"}]}
{"smiles": "C[C@@H]1CCCCO[C@@H](CN(C)Cc2ccc(C(F)(F)F)cc2)[C@H](C)CN([C@@H](C)CO)C(=O)c2cc(NS(=O)(=O)c3cn(C)cn3)ccc2O1", "values": [{"measurement": "cytotoxicity call", "setting": "HSkMC", "value": "inactive"}, {"measurement": "cytotoxicity call", "setting": "HepG2", "value": "inactive"}, {"measurement": "growth inhibition call", "setting": "S. aureus RN4220", "value": "inactive"}]}
{"smiles": "COc1ccc(NC(=O)N2CCCCN3[C@H](COCCN(C)C)[C@H](c4ccc(C#Cc5ccccc5)cc4)[C@@H]3C2)cc1", "values": [{"measurement": "cytotoxicity call", "setting": "HSkMC (human skeletal muscle cells)", "value": "active"}, {"measurement": "cytotoxicity call", "setting": "HepG2", "value": "active"}, {"measurement": "growth inhibition call", "setting": "S. aureus RN4220", "value": "active"}]}
